Laboratory results: article PMC4336329 (PLoS ONE, 2015)
Hit rate of the full screen: of about 310,000 compounds, about 14,000 (4.5%) showed an effect of 50% or more. The effect is printed as a negative number. Some of the results follow.

These molecules were tested against human ether-à-go-go-related gene (hERG) potassium channel (human, UniProt Q12809) (assay: primary screen, population patch clamp on CHO cells stably expressing hERG).
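Note: peak tail current of the secondary pulse compared with the same well before compound.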

Sequence of human ether-à-go-go-related gene (hERG) potassium channel (Q12809 whole entry, looked up): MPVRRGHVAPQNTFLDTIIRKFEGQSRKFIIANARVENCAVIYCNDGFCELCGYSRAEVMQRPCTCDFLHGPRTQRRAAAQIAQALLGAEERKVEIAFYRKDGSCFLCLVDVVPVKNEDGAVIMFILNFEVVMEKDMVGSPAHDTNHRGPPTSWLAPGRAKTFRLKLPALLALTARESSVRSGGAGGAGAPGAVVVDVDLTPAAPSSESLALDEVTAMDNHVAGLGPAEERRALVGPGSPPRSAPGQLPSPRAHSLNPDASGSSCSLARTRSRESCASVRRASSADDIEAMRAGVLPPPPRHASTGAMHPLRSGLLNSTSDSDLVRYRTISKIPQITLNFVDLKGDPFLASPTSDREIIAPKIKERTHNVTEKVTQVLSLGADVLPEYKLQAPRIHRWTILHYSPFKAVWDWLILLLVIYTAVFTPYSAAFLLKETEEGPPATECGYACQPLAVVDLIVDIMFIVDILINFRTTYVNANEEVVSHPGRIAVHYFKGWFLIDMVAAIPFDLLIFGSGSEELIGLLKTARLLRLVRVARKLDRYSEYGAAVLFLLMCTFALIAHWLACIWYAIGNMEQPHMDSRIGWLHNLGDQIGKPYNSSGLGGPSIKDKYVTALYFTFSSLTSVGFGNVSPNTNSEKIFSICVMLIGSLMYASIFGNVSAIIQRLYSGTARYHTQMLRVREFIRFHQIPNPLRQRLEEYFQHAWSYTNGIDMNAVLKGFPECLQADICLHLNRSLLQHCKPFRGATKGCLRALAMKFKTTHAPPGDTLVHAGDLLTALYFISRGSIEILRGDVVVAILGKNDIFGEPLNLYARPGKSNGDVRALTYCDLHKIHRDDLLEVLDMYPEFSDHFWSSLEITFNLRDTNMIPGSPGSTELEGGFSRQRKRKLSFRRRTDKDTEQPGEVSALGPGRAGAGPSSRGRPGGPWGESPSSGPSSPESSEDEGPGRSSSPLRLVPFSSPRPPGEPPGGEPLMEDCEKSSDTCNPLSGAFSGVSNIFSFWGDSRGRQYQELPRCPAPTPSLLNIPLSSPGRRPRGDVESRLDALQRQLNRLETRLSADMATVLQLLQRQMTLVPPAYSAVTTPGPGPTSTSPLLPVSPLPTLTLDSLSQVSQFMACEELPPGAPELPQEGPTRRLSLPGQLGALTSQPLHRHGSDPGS

SMILES | hERG current change (%, negative = inhibition) at 10uM
COc1ccc(NC(=O)CC2C(=O)N(c3ccc(F)cc3)C(=S)N2NC(=O)c2ccc(Cl)cc2)cc1 (stereo not drawn) | -5.33%
CCOc1cccc(CNn2cnnc2)c1OCc1ccccc1Cl | -17.3%
Cc1ccc(S(=O)(=O)N2CCN(C(=O)Cc3sc(C)nc3-c3ccc(F)cc3)CC2)c(C)c1 | -17.4%
O=c1nc(Nc2ccc(Br)cc2)sc2ccc([N+](=O)[O-])cc12 | 18.6%
O=C(NC(=S)NN1CCCCC1c1cccnc1)c1ccc(Br)cc1 (stereo not drawn) | -26.5%
COc1ccc(N2C(=O)CC(Cc3ccc(Br)cc3)C2=O)cc1 (stereo not drawn) | 2.75%
CCNC(=S)N/N=C(\C)c1ccc2c(c1)OCCO2 | 13.4%
CCOC(=O)c1cc2c(nc1N)CC(C)(C)OC2.Cl | 11.7%
O=C(NCc1ccccc1Cl)C1CCN(c2cnccn2)CC1 | -4.12%
COc1cc(NC(=O)c2cc3c(Cl)nc4ccccc4c3s2)cc(OC)c1OC | 19.2%
CN(C)S(=O)(=O)c1ccc(S(=O)(=O)Nc2ccc3c(c2)oc2ccccc23)cc1 | 3.48%
COc1ccc(C(=O)NCc2nnc(SCC(=O)NC3CCCC3)o2)cc1 | 17.7%
COc1ccc(S(=O)(=O)CCC(=O)NCCc2ccc(S(N)(=O)=O)cc2)cc1 | 13.8%
CC(C)(C)Nc1nc(-c2ccccn2)nc2ccccc12 | -69.8%
CCn1c(SCC(=O)NCC2CCCO2)nnc1-c1c[nH]c2ccccc12 (stereo not drawn) | 0.121%
CC1(C)CC(N=Cc2c(O)n(Cc3ccc4c(c3)OCO4)c(=O)c3ccccc23)CC(C)(C)N1 | 2%
COc1ccccc1OCCNC(=O)c1cc([N+](=O)[O-])cc([N+](=O)[O-])c1 | 12.2%
CCOC(=O)c1ccc2[nH]c3c(c2c1)CCCC3O (stereo not drawn) | 3.1%
Cc1ccc(/C=N/n2nnnc2N)cc1 | -0.446%
CCOC(=O)C1CCCN(S(=O)(=O)CCNC(=O)c2ccc3c(c2)OCO3)C1 (stereo not drawn) | 7.92%
Cc1ccc2nc(NC(=O)CCCc3nc4ccccc4s3)sc2c1 | -8.68%
Cc1ccc2nc(CSc3nc(C)ccc3C#N)[nH]c2c1 | 7.61%

SMILES | hERG current change (%, negative = inhibition) at 10uM
CCN(CC)S(=O)(=O)c1ccc(OC)c(NC(=O)c2ccc(-n3cncn3)c([N+](=O)[O-])c2)c1 | 13.6%
CCCc1cc(=O)[nH]c(SCC(=O)NCC2COc3ccccc3O2)n1 (stereo not drawn) | -13.2%
Cc1ccc(N(CC(O)COCc2ccco2)S(=O)(=O)c2ccc(C)cc2)cc1 (stereo not drawn) | -11.1%
COc1ccccc1CNC(=O)C(=O)NCCC1CCCCN1S(=O)(=O)c1ccc(C)cc1 (stereo not drawn) | -18.7%
COc1ccc(NC(=S)N2CCN(C(=O)c3ccco3)CC2)cc1 | -6.29%
Cc1cccc(N2C(=O)SC(N(CC(=O)O)c3cccc(C)c3)C2=O)c1 (stereo not drawn) | 21.2%
COc1ccc(Cl)cc1NC(=O)NCC1CCN(C(=O)OC(C)(C)C)CC1 | 4.67%
CCC(C(=O)NC1CCCCC1)n1c(SCc2ccccc2F)nc2ccncc21 (stereo not drawn) | -8.29%
CN1CCN(NC(=O)Nc2ccc(Br)cc2Cl)CC1 | -47.3%
CC(=O)N1CCC(C(=O)NCCOc2ccc(C)cc2)CC1 | 7.67%
COc1ccc(/C=N/NC(=O)c2cc(C)oc2C)cc1OC | -17.8%
Cc1ccc(CNC(=O)CO/N=C/c2ccc3c(c2)OCO3)cc1 | 16.4%
CC(C)C(NC(=O)OCc1ccccc1)C(=O)N1CCOCCOCCOCC1 (stereo not drawn) | 20.1%
O=C(Nc1ccccc1)c1nn(-c2cccc(C(F)(F)F)c2)ccc1=O | -34.5%
O=C(c1cccs1)N1N=C(c2ccccc2)CC1c1ccccc1O (stereo not drawn) | 23.3%
Br.Clc1ccc(-c2cn3cc(Br)ccc3n2)cc1Cl | 8.27%
Cc1ccc(C)c(Nc2nn3c(=O)c4ccc(C(=O)NCc5cccnc5)cc4nc3s2)c1 | 14.3%
COc1cccc(OCCn2cccc2/C=C2/C(=N)N3OC(C)=CC3=NC2=O)c1 | -23.5%
COc1ccc(N(CC(=O)N/N=C/c2ccc(-c3ccc([N+](=O)[O-])cc3)o2)S(=O)(=O)c2ccc(C)cc2)cc1Cl | 9.59%
CC(Oc1ccc2c(-c3ccccc3)cc(=O)oc2c1)C(=O)O (stereo not drawn) | 1.64%
CC12CN(Cc3ccccc3)CC(C)(CN(Cc3ccccc3)C1)C2=O | 11%
O=C(NNC(=S)NCc1ccco1)C(c1ccccc1)c1ccccc1 | 5.44%

SMILES | hERG current change (%, negative = inhibition) at 10uM
COc1ccc(-n2c(=O)c3ccccc3n(CC(=O)Nc3ccccc3OC)c2=O)cc1 | 0.109%
COc1cc(C2CC(=O)Oc3c(C(CCN4CCCC(C)C4)c4ccc(N(C)C)cc4)c(OC)cc(OC)c32)cc(OC)c1OC (stereo not drawn) | -10.7%
O=C(CSc1ncn[nH]1)NC1CC2CCC1C2 (stereo not drawn) | 19.9%
OCCNc1cc(-n2nc(-c3ccccc3)cc2-c2ccccc2)ncn1 | -26.8%
Nc1c(C(=O)OCc2ccccc2)c2nc3ccccc3nc2n1Cc1cccs1 | -2.49%
Cc1cc(OC(=O)c2cc(Cl)ccc2Cl)c([N+](=O)[O-])c(=O)[nH]1 | 7.45%
CN(C)c1ccsc1C(=O)NNS(=O)(=O)c1ccc(Cl)cc1 | -4.68%
Cc1ccc(C2(c3ccccc3)NC(=O)N(CC(=O)NCc3ccco3)C2=O)cc1C (stereo not drawn) | -50.4%
O=C(CSc1ncc(C(F)(F)F)cc1Cl)N1CCN(S(=O)(=O)c2ccc(Cl)cc2)CC1 | 6.74%
Cc1cc(C)n2nc(CC#N)c(C#N)c2n1 | 12%
CN(C)N1C(N)=C(C#N)C(c2ccsc2)C2=C1CCCC2=O (stereo not drawn) | -22.7%
CCCCn1nc2cc(C(=O)NCc3cc(C(F)(F)F)cc(C(F)(F)F)c3)ccc2c1OC | 12.6%
Cc1cccc(NC(=O)c2ccc(C)c(S(=O)(=O)N3CCCCC3)c2)n1 | -36.7%
Cc1cccc(OCCCC(=O)Nc2nnc(C3CCCO3)s2)c1C (stereo not drawn) | 16.1%
O=C(NNC(=O)C1CCCCC1)c1ccc(Br)cc1 | 12.3%
O=C(N/N=C/C(Cl)=C/c1ccc([N+](=O)[O-])cc1)C(=O)Nc1cccc(C(=O)O)c1 | 12.4%
Cc1nnsc1Sc1cccc(C(F)(F)F)c1 | 10.5%
O=C(Nc1ccc(Cl)c(Cl)c1)N1CC=C(c2ccccc2)CC1 | 6.12%
Cc1ccc(NC(=O)[C@H](Cc2c[nH]c3ccccc23)NC(=O)[C@@H]2Cc3ccccc3CN2)c(C)c1 | -30.1%
Cn1ncc(Br)c1C(=O)Nc1ccc(F)cc1F | 6.1%
CN(C)c1ccc(N=Nc2ccccc2C(=O)OCC(=O)NCC2CCCCC2)cc1 | 6.61%
O=C(/C=C/Nc1ccc([N+](=O)[O-])cc1)c1ccc(Br)cc1 | 9.65%

SMILES | hERG current change (%, negative = inhibition) at 10uM
COc1ccccc1C(=O)N=c1sc2c(C)ccc(OC)c2n1C | 14.4%
NNC(=S)NCCc1ccccc1 | 20.1%
O=C(NCc1ccccn1)c1ccc(Cl)c(S(=O)(=O)N2CCCCCC2)c1 | -64.5%
Cc1ccccc1N1CCN(Cc2c(C#N)c3ccccc3n2C)CC1 | 9.54%
COc1ccc(S(=O)(=O)N2CCC(C(=O)NCCC(=O)Nc3cccc(Cl)c3)CC2)cc1 | -2.63%
COCCN1C(=O)N(c2ccc(Cl)cc2)C(=O)C1CC(=O)Nc1cc(OC)cc(OC)c1 (stereo not drawn) | 1.59%
O=C(O)CC1C(=O)OCN1C(=O)OCc1ccccc1 (stereo not drawn) | 9.38%
Cc1[nH]n(-c2cccc(Cl)c2)c(=O)c1-c1ccccc1 | 17.1%
CCCC(=O)NC(C)c1nc2ccccc2n1C(C)C (stereo not drawn) | 8.05%
c1ccc(-c2cc3ccccc3[nH]2)cc1 | 21%
CC(=O)Nc1ccc(NC(=O)c2cccc(Oc3ccccc3)c2)cc1 | 8.84%
COc1cccc(C(=O)O/N=C(\N)c2ccc([N+](=O)[O-])cc2)c1OC | -10.7%
Cc1ccccc1NC(=S)N(Cc1cccnc1)Cc1ccco1 | -7.58%
C=CCNC(=O)c1c(O)c2cccc3c2n(c1=O)CCC3 | 16.9%
CC(C)(C)c1ccc(-c2noc(CCC(N)=O)n2)cc1 | -11%
COc1ccc(N2CCN(S(=O)(=O)CCNC(=O)/C=C/c3ccccc3)CC2)cc1 | -34.1%
CCCCC(=O)Nc1sc2c(c1C#N)CC(C)(C)OC2 | -5.82%
Cc1ccc(S(=O)(=O)NCC(=O)OC2CCOC2=O)cc1 (stereo not drawn) | 4.46%
CC1CN(CCCOc2ccccc2-c2ccccc2)CC(C)O1.O=C(O)C(=O)O (stereo not drawn) | -47.2%
CCc1nc(NCCC(C)C)c2nnn(Cc3ccccc3)c2n1 | 23.2%
CCN(CC(=O)Nc1c(F)cccc1F)C(=O)CSc1nc2ccccc2o1 | -1.64%
